In patent KR20220059888A (dated 2022):

T1: 개 Tie2 단백질 (개 (dog), UniProt A0A8I3S0B4 27-1128)
T1 construct: whole, on cells; also called 다른 종 유래의 Tie2 단백질
T1 sequence: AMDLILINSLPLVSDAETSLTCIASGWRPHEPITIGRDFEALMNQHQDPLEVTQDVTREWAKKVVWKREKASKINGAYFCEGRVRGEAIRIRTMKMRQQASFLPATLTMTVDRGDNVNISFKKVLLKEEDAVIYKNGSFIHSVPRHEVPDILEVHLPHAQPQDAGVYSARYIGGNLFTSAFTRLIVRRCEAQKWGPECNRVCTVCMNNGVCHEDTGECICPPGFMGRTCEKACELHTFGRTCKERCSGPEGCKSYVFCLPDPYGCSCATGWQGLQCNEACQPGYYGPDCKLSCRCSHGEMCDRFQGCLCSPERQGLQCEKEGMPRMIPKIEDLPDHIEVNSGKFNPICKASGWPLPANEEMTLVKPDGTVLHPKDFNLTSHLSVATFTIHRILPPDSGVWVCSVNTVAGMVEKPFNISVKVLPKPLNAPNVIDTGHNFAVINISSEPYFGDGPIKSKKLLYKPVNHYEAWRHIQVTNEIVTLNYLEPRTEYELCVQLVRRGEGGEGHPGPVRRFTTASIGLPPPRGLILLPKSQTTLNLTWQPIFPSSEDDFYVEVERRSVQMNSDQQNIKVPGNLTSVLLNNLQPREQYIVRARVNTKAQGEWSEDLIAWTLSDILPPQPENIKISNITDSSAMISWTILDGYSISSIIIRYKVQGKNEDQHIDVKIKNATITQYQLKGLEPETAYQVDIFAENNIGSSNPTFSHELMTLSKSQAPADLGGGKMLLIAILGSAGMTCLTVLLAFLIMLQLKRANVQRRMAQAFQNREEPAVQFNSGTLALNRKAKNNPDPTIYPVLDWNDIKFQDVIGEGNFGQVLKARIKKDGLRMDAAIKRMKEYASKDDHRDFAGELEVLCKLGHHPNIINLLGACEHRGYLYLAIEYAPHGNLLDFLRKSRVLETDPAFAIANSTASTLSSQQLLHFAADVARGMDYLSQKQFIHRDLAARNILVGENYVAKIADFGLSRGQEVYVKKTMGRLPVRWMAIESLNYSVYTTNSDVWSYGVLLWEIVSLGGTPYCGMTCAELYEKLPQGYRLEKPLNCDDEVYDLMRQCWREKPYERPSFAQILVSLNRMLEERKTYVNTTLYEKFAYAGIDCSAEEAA

T2: 랫 Tie2 단백질 (랫 (rat), UniProt A0ABK0L6J5 19-1116)
T2 construct: whole, on cells; also called 다른 종 유래의 Tie2 단백질
T2 sequence: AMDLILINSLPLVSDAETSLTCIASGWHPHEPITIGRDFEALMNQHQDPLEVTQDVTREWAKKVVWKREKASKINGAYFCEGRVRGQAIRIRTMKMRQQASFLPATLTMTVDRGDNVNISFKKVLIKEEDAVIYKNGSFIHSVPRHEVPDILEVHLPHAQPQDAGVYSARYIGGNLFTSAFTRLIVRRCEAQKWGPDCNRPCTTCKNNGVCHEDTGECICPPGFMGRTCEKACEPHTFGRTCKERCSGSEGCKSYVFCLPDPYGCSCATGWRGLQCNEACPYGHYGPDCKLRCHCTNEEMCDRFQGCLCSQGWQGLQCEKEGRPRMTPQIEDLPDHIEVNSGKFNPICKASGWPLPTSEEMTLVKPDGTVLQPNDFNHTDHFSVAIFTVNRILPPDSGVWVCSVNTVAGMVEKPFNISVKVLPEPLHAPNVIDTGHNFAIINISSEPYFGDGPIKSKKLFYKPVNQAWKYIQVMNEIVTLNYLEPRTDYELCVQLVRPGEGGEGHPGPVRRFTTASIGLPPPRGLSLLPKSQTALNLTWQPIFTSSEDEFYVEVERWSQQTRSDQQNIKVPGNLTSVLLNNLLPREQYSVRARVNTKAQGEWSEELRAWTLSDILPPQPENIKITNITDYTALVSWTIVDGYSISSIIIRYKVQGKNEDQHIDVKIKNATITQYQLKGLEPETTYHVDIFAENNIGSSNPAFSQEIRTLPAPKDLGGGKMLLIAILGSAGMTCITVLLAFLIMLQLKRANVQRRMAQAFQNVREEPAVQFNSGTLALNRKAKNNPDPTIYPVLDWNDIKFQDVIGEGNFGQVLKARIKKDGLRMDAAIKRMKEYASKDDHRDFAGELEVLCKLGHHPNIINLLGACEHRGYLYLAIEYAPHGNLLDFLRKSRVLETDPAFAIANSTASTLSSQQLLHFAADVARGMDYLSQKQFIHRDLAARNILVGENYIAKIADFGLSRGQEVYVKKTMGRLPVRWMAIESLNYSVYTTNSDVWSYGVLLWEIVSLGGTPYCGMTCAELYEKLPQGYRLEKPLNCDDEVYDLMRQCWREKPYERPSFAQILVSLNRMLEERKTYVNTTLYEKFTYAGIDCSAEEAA

T3: 마우스 Tie2 단백질 (마우스 (mouse), UniProt Q02858 23-1122)
T3 construct: whole, on cells; also called 다른 종 유래의 Tie2 단백질
T3 sequence (looked up): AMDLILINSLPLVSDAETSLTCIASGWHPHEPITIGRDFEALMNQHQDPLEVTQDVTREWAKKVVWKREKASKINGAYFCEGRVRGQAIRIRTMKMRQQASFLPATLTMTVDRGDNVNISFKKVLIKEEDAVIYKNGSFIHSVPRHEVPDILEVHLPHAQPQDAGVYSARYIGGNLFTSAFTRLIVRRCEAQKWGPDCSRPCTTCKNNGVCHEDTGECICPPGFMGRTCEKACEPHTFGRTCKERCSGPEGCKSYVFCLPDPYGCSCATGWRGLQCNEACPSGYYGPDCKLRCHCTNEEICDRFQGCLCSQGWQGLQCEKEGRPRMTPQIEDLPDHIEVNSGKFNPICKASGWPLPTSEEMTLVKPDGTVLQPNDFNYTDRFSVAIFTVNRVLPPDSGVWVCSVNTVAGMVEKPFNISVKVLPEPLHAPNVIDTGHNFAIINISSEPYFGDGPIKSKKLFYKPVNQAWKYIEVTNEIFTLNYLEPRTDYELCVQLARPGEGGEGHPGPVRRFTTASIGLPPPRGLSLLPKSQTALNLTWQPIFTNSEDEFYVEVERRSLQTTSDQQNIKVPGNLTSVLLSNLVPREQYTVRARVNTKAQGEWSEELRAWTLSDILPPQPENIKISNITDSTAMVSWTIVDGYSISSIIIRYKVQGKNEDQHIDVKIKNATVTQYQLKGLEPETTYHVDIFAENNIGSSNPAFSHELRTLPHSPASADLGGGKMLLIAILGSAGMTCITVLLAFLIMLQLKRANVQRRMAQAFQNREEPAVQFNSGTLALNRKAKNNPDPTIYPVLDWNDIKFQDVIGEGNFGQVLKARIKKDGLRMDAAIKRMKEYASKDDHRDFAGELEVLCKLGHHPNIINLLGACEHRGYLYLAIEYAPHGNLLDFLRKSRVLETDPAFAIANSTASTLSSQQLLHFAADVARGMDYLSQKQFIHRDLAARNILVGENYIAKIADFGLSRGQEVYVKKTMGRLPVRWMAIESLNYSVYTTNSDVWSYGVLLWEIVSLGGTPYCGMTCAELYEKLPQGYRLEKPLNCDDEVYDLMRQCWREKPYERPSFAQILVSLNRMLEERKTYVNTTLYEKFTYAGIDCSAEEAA


Columns and labels:
[1] = biological target: T1, 개 Tie2 단백질; experiment: flow cytometry; HEK293T cells transfected with dog Tie2
[2] = biological target: T2, 랫 Tie2 단백질; experiment: flow cytometry; HEK293T cells transfected with rat Tie2
[3] = biological target: T3, 마우스 Tie2 단백질; experiment: flow cytometry; HEK293T cells transfected with mouse Tie2
[4] = biological target: T4, 인간 Tie2-Fc 재조합 단백질 (인간 (human), UniProt Q02763 23-748, limits assumed); experiment: BLI (Octet K2); human Tie2-Fc immobilised on AR2G tip; antibody 30-1.63 nM; global fit
T4 construct: Human Tie2-Fc recombinant protein, coated in ELISA and immobilised in BLI; also called 인간 Tie2-Fc 단백질; 항원; not shown: Fc part

Row | Binder | Kd [4] [nM] | koff [4] [s⁻¹] | kon [4] [M⁻¹ s⁻¹] | binding result [1] | binding result [2] | binding result [3]
1 | Ang1mab4(H1V12A) (antibody, human IgG4 S228P, kappa, also called 변이 항체) heavy: QVQLVQSGGGVVQPGRSLRLSCAASGLTFSNYAMHWARQAPGKGLEWVAVISYDGENKYYADSVKGRFTISRDNSKNMLQLQMNRLRSEDTAVYYCATPKGGALEIWGQGTVITVSSASTKGPSVFPLAPCSRSTSESTAALGCLVKDYFPEPVTVSWNSGALTSGVHTFPAVLQSSGLYSLSSVVTVPSSSLGTKTYTCNVDHKPSNTKVDKRV[sequence of human IgG4 Fc with S228P (EU numbers) omitted] light: DIQMTQSPDSLAVSLGERATINCKSSQSVLYSSNNKNYLAWYQQKPGQPPNLLMYWASTRESGVPDRFSGSGSGTDFTLTISSLQAEDVAVYYCQQYYSAPITFGQGTRLEIKRTVAAPSVFIFPPSDEQLKSGTASVVCLLNNFYPREAKVQWKVDNALQSGNSQESVTEQDSKDSTYSLSSTLTLSKADYEKHKVYACEVTHQGLSSPVTKSFNRGEC | 0.997 | 7.62e-05 | 76700 | no binding (tested: 5-g/ml (so in the source)) | no binding (tested: 5-g/ml (so in the source)) | no binding (tested: 5-g/ml (so in the source))
2 | Ang1mab4(L1S07A) (antibody, human IgG4 S228P, kappa, also called 변이 항체) heavy: QVQLVQSGGGVVQPGRSLRLSCAASGLTFSNYAMHWVRQAPGKGLEWVAVISYDGENKYYADSVKGRFTISRDNSKNMLQLQMNRLRSEDTAVYYCATPKGGALEIWGQGTVITVSSASTKGPSVFPLAPCSRSTSESTAALGCLVKDYFPEPVTVSWNSGALTSGVHTFPAVLQSSGLYSLSSVVTVPSSSLGTKTYTCNVDHKPSNTKVDKRV[sequence of human IgG4 Fc with S228P (EU numbers) omitted] light: DIQMTQSPDSLAVSLGERATINCKSSQSVLYSANNKNYLAWYQQKPGQPPNLLMYWASTRESGVPDRFSGSGSGTDFTLTISSLQAEDVAVYYCQQYYSAPITFGQGTRLEIKRTVAAPSVFIFPPSDEQLKSGTASVVCLLNNFYPREAKVQWKVDNALQSGNSQESVTEQDSKDSTYSLSSTLTLSKADYEKHKVYACEVTHQGLSSPVTKSFNRGEC | 0.682 | 7.54e-05 | 111000 | no binding (tested: 5-g/ml (so in the source)) | no binding (tested: 5-g/ml (so in the source)) | no binding (tested: 5-g/ml (so in the source))

The remaining binders from weak to strong by Kd [4], led by results:

Row | Kd [4] [nM] | koff [4] [s⁻¹] | kon [4] [M⁻¹ s⁻¹] | Binder | binding result [1] | binding result [2] | binding result [3]
3 | 1.36 | 0.000148 | 109000 | Ang1mab4(L1Q01A) (antibody, human IgG4 S228P, kappa, also called 변이 항체) heavy: QVQLVQSGGGVVQPGRSLRLSCAASGLTFSNYAMHWVRQAPGKGLEWVAVISYDGENKYYADSVKGRFTISRDNSKNMLQLQMNRLRSEDTAVYYCATPKGGALEIWGQGTVITVSSASTKGPSVFPLAPCSRSTSESTAALGCLVKDYFPEPVTVSWNSGALTSGVHTFPAVLQSSGLYSLSSVVTVPSSSLGTKTYTCNVDHKPSNTKVDKRV[sequence of human IgG4 Fc with S228P (EU numbers) omitted] light: DIQMTQSPDSLAVSLGERATINCKSSASVLYSSNNKNYLAWYQQKPGQPPNLLMYWASTRESGVPDRFSGSGSGTDFTLTISSLQAEDVAVYYCQQYYSAPITFGQGTRLEIKRTVAAPSVFIFPPSDEQLKSGTASVVCLLNNFYPREAKVQWKVDNALQSGNSQESVTEQDSKDSTYSLSSTLTLSKADYEKHKVYACEVTHQGLSSPVTKSFNRGEC | no binding (tested: 5-g/ml (so in the source)) | no binding (tested: 5-g/ml (so in the source)) | no binding (tested: 5-g/ml (so in the source))
4 | 0.538 | 4.72e-05 | 87700 | Ang1mab4(L1V03A) (antibody, human IgG4 S228P, kappa, also called 변이 항체) heavy: QVQLVQSGGGVVQPGRSLRLSCAASGLTFSNYAMHWVRQAPGKGLEWVAVISYDGENKYYADSVKGRFTISRDNSKNMLQLQMNRLRSEDTAVYYCATPKGGALEIWGQGTVITVSSASTKGPSVFPLAPCSRSTSESTAALGCLVKDYFPEPVTVSWNSGALTSGVHTFPAVLQSSGLYSLSSVVTVPSSSLGTKTYTCNVDHKPSNTKVDKRV[sequence of human IgG4 Fc with S228P (EU numbers) omitted] light: DIQMTQSPDSLAVSLGERATINCKSSQSALYSSNNKNYLAWYQQKPGQPPNLLMYWASTRESGVPDRFSGSGSGTDFTLTISSLQAEDVAVYYCQQYYSAPITFGQGTRLEIKRTVAAPSVFIFPPSDEQLKSGTASVVCLLNNFYPREAKVQWKVDNALQSGNSQESVTEQDSKDSTYSLSSTLTLSKADYEKHKVYACEVTHQGLSSPVTKSFNRGEC | no binding (tested: 5-g/ml (so in the source)) | no binding (tested: 5-g/ml (so in the source)) | no binding (tested: 5-g/ml (so in the source))
